Experimental data: PubChem BioAssay AID686979 (National Center for Advancing Translational Sciences (NCATS), 2013)
“And” between values parts separate entries of the source, which are not always exact repeats. Equal values may be shown once. About 50,000 (12%) of roughly 420,000 compounds were called active. The shares of active, inactive and inconclusive entries below differ from those in the screen. The call rests on the fitted dose curve; in most records, active means well fitted inhibition curve with a large enough effect; inconclusive means small, poorly fitted or top-dose-only effect; inactive means flat fitted curve, though single readings scatter. Potencies of inconclusive entries are doubtful fits and often do not repeat.

Assay: qHTS for Inhibitors of human tyrosyl-DNA phosphodiesterase 1 (TDP1): qHTS in cells in presence of CPT; further: nearly all actives have a fitted effect of over 55% in size
Conditions: chicken DT40 Tdp1-/-;hTDP1 cells + 20 nM CPT, ATP luminescence, 48 h; activity change, negative = growth inhibition: at 46.2 µM (top of the series) unless noted
Procedure, shortened: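 Cell growth measured by CellTiter-Glo luminescence after a minimum 48 h, 37 C compound exposure with 20 nM CPT in Tdp1-knockout DT40 cells stably expressing hTDP1, seeded 400/well; qHTS titration format.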
On the % scale 0 is the no-effect control and ±100 the full control effect; potency means the concentration at half of the fitted maximal effect; tags describe the fitted curve by direction and shape.

| Compound | Potency | activity change, negative = growth inhibition |
| --- | --- | --- |
| O=C(C[C@@H]1C/C=C\C[C@H](NC(=O)OCC2c3ccccc3-c3ccccc32)C(=O)OC[C@H]2CCCN2C1=O)N[C@@H](CO)Cc1ccccc1 | active: 4.61 µM | – |
| Cc1ccc(NC(=O)Nc2c[nH]c(=O)[nH]c2=O)c(Cl)c1 | inactive | – |
| CCOc1ccc2nc(N3CCCC(C(=O)Nc4cc(C)ccc4C)C3)sc2c1 (stereo unspecified) | active: 23.1 µM | – |
| Cn1nc(CC(=O)NCc2ccc(F)cc2)c2ccccc2c1=O | active: 13 µM | – |
| O=C(NCc1ccccc1)c1cc(C2CCCCN2S(=O)(=O)c2ccccc2)on1 (stereo unspecified) | inconclusive: 29.1 µM [inhibitor, single point] | – |
| O=C(CN1CCN(Cc2ccc(Cl)cc2)CC1)N/N=C/C=C/c1ccccc1[N+](=O)[O-] | inconclusive: 18.4 µM [inhibitor, single point] | – |
| N#Cc1ccccc1S(=O)(=O)N1CCN(Cc2cc3c(cc2Br)OCCO3)CC1 | active: 16.4 µM | – |
| NC(=O)c1c(NC(=O)C(=O)N2CCOCC2)sc2c1CCC2 | inactive | – |
| O=c1ccsc2ccccc12 | inactive | – |
| O=C(NNC(=S)Nc1cccc(C(F)(F)F)c1)c1ccc(Cl)cc1Cl | inconclusive: 25.9 µM [inhibitor, partial curve, poor fit] | – |
| O=c1c2ccccc2n(Cc2c(F)cccc2Cl)c(=O)n1CCc1ccccc1 | inactive | – |
| Cc1nn(C)c(C)c1CCC(=O)N1CCCC(N2CCN(c3ccc(F)cc3)CC2)C1 (stereo unspecified) | inactive | – |
| CCN1C(=NCC(C)C)N[C@@H](c2cccc(C(F)(F)F)c2)C(C(=O)OC)=C1C | inconclusive: 18.4 µM [inhibitor, single point] | – |
| COc1ccc(NC(=O)CN2C(=O)NC(C)(C3CC3)C2=O)c(OC)c1 (stereo unspecified) | inactive | – |
| CCCNS(=O)(=O)c1cc(CN2C(=O)c3cccnc3C2=O)ccc1OC | inactive | – |
| COc1cc(CCCN2CCNC[C@H]2Cc2cccc3ccccc23)cc(OC)c1OC | inconclusive: 25.9 µM [inhibitor, single point] | – |
| O=c1c2ccccc2nnn1-c1ccccc1[N+](=O)[O-] | inactive | – |
| Cc1cc2c(cc3c(SCc4ccc(Cl)cc4)nncn32)o1 | inconclusive: 32.6 µM [inhibitor, single point] | – |
| COc1cccc(/C=C2\SC(=S)N(CCCC(=O)N3CCCC3)C2=O)c1 | inconclusive: 23.1 µM [inhibitor, single point] | – |
| CCOc1cc(C2c3c(oc4ccccc4c3=O)C(=O)N2Cc2ccc(OC)cc2)ccc1O (stereo unspecified) | inconclusive: 20.6 µM [inhibitor, single point] | – |
| OC(CNCc1cccc(Br)c1)c1ccccc1 (stereo unspecified) | inconclusive: 10.3 µM [inhibitor, partial curve] | – |
| C=CCN(C(=O)CCC(=O)Nc1cc(C)on1)C(C(=O)NC(C)(C)C)c1ccc(OC)cc1 (stereo unspecified) | inactive | – |
| O=C(Nc1nnc(C2=COCCO2)o1)C1CCCCC1 | inactive | – |
| COc1ccc(C2(O)CCN(CC(=O)Nc3nccs3)CC2)c(OC)c1 | inactive | – |

| Compound | Potency | activity change, negative = growth inhibition |
| --- | --- | --- |
| Nc1nc2ccccc2n1S(=O)(=O)c1ccc(Cl)cc1 | inconclusive: 14.6 µM [inhibitor, partial curve, poor fit] | – |
| Cc1nn(-c2ccccc2)c(C)c1/C=C/C(=O)OCC(=O)Nc1ncc(C(F)(F)F)cc1Cl | inconclusive: 25.9 µM [inhibitor, partial curve] | – |
| CC(C)c1cccc(C(C)C)c1NC(=O)OC1CCCCC1 | inconclusive: 25.9 µM [inhibitor, single point] | – |
| CN(C)c1ccc(/C=C2\C=Cc3ccccc32)c(F)c1 | inconclusive: 35.5 µM [inhibitor, single point] | – |
| O=C(N/N=C/c1ccc(Cl)cc1)c1ccc2nc[nH]c2c1 | inconclusive: 29.1 µM [inhibitor, single point] | – |
| Cc1ccc2c(c1)C1(C(=O)N2)N2CCCC2C(C(=O)c2ccc3ccccc3c2)C12C(=O)Nc1ccccc12 (stereo unspecified) | active: 16.4 µM | – |
| O=C(O)C1C2C=CC(C2)C1C(=O)NCc1cccnc1 (stereo unspecified) | inactive | – |
| COc1ccccc1NC(=O)Nc1ccnn1C1CCN(C(=O)C2CCOC2)CC1 (stereo unspecified) | inactive | – |
| Cc1cccc(Nc2c(-c3ccsc3)nc3nc(C)cc(C)n23)c1 | inconclusive: 23.1 µM [inhibitor, single point] | – |
| Cc1cccc(C)c1N1CCN(c2nc(N(C)C)oc(=O)c2C#N)CC1 | inconclusive: 25.9 µM [inhibitor, single point] | – |
| COc1ccccc1/C=C/C(=O)OCC(=O)c1cc(C)n(C)c1C | inconclusive: 29.1 µM [inhibitor, single point] | – |
| CC(OC(=O)Cn1ccccc1=O)C(=O)Nc1cc(Cl)cc(Cl)c1 (stereo unspecified) | inconclusive: 6.51 µM [inhibitor, partial curve] | – |
| O=C(CCCCn1c(=O)c2ccccc2n(Cc2cccc(F)c2)c1=O)NCc1ccc2c(c1)OCO2 | inconclusive: 29.1 µM [inhibitor, single point] | – |
| CN1/C(=C\C(=O)Nc2cccnc2)c2ccccc2CC1(C)C | active: 18.4 µM | – |
| COc1ccc(/C=C/c2ccncc2)cc1OC | inactive | – |
| CCN1CCN(Cc2ccc(NC(=O)c3cc(NC(=O)c4ccno4)cc(OC)c3)cc2C(F)(F)F)CC1 | inconclusive: 29.1 µM [inhibitor, single point] and inconclusive: 16.4 µM [inhibitor, single point] | – |
| CC(=O)c1cc2cccc(OC3(C)CCN(Cc4ccc(-c5ccccn5)cc4)C3)c2o1 (stereo unspecified) | inconclusive: 29.1 µM [inhibitor, single point] | – |
| CCC1CN(Cc2cn[nH]c2-c2ccc(F)cc2)Cc2cc(OC)ccc2O1 (stereo unspecified) | inconclusive: 1.03 µM [inhibitor, single point] | – |
| Cc1ccc2c(c1C)OC(=O)CC2(C)C | inactive | – |
| CN(Cc1ccccc1)C(=O)CN1C(=O)NC2(CCCc3sccc32)C1=O (stereo unspecified) | inactive | – |
| COc1ccc(NS(=O)(=O)c2ccc(-c3n[nH]c(=S)n3Cc3ccccc3)cc2)cc1 | inactive | – |
| O=C(O)c1ccc2nc(-c3cc4cc(Cl)ccc4oc3=O)[nH]c2c1 | – | inconclusive: -0.444% [inhibitor] |
| COc1cccc(C2CC(c3cccs3)=NN2C(=S)Nc2ccccc2)c1OC (stereo unspecified) | inconclusive: 23.1 µM [inhibitor, single point] | – |
| COc1ccc(CNC(=O)CCOc2ccc(C(C)(C)C)cc2)cc1 | inconclusive: 23.1 µM [inhibitor, single point] | – |

| Compound | Potency | activity change, negative = growth inhibition |
| --- | --- | --- |
| COc1ccc(-n2cnc3cc(C(=O)NC4CCCCCC4)ccc32)cc1 | inconclusive: 16.4 µM [inhibitor, single point] | – |
| CCN(CCCNC(=O)CC(C(=O)N1CCc2ccccc21)n1ccnc1)c1ccccc1 (stereo unspecified) | – | inconclusive: -32.9% [inhibitor] |
| CCOC(=O)c1c(C)[nH]c(C)c1S(=O)(=O)N(C)CC(=O)NCc1ccc(Cl)cc1 | inconclusive: 25.9 µM [inhibitor, single point] | – |
| Cc1ccc(C(=O)c2oc3ccccc3c2NC(=O)Cc2coc3ccc(C)cc23)cc1 | inconclusive: 10.3 µM [inhibitor, partial curve] | – |
| COc1ccc(C)cc1-n1cnc2cc(C(=O)NC3CCCCCC3)ccc21 | inconclusive: 20.6 µM [inhibitor, single point] | – |
| OCCCCCNc1ncnc2ccccc12 | active: 8.2 µM | – |
| Cc1nn(CCC(N)=S)c2nc(-c3cccs3)cc(C(F)(F)F)c12 | inconclusive: 25.9 µM [inhibitor, single point] | – |
| Cc1ccc2onc(CNC(=O)NCc3ccc(Cl)cc3)c2c1 | inactive | – |
| COc1ccccc1NC(C)C(=O)c1c[nH]c2ccccc12 (stereo unspecified) | active: 11.2 µM | – |
| COc1ccccc1Cc1c(-c2ccc(F)cc2)nc2c(C)cc(Br)cn12 | inconclusive: 29.1 µM [inhibitor, single point] | – |
| O=C(NC(=S)Nc1ccc(N2CCOCC2)cc1)c1ccc2c(c1)OCCO2 | inconclusive: 20.6 µM [inhibitor, single point] | – |
| COc1cccc(CNC(=O)CN2C(=O)N(c3ccc(C)cc3C)S(=O)(=O)c3ccccc32)c1OC | inconclusive: 20.6 µM [inhibitor, single point] | – |
| CCc1nc(-c2cc(S(=O)(=O)N3CCN(c4ccccc4)CC3)ccc2OC)no1 | inactive | – |
| NC(=O)c1c(N)[nH]c(C(=O)c2ccccc2)c1-c1ccccc1Br | inconclusive: 29.1 µM [inhibitor, partial curve] | – |
| O=C(CSc1nnc(-c2ccc(OC(F)F)cc2)o1)NCc1cccs1 | inactive | – |
| CCN(CC)c1nc2ccccc2nc1C(C#N)C(=O)NCCc1ccccc1 (stereo unspecified) | inconclusive: 10.3 µM [inhibitor, partial curve, poor fit] | – |
| CCOc1ccc(NC(=O)CC2C(=O)N(c3ccc(OC)cc3)C(=O)N2Cc2ccc(OC)cc2)cc1 (stereo unspecified) | inconclusive: 13 µM [inhibitor, single point] | – |
| CCCOc1ccc(C(=O)Nc2ccc(N3CCN(C(C)=O)CC3)cc2)cc1 | inconclusive: 29.1 µM [inhibitor, single point] | – |
| O=C(CSc1nccn1-c1cccc(Cl)c1)Nc1cccc2ccccc12 | inconclusive: 29.1 µM [inhibitor, single point] | – |
| Cc1ncc(CN2CCCC(C(=O)Nc3ccc(-n4ccnc4C)cc3)C2)cn1 (stereo unspecified) | inactive | – |
| O=S(=O)(c1cccc2ccccc12)N1CCN(c2nc(-c3cccs3)nc3ccccc23)CC1 | inconclusive: 11.2 µM [inhibitor, single point] | – |
| O=C(NCCc1ccccc1)c1cc(-c2ccco2)on1 | active: 6.31 µM | – |
| COc1ccccc1C(=O)Nc1ccnn1C1CCN(C(=O)C(C)(C)C)CC1 | inactive | – |
